# Laboratory results as given in PubChem BioAssay AID761 (NMMLSC, 2007).
# Out of some 190,000 compounds screened, about 400 (0.21%) were called active. The shares of active, inactive and inconclusive entries below differ from those in the screen.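 How the source made its calls: active means percent activity GTP binding at least 20 points away from the 100% baseline, either down as inhibitor or up as activator; inconclusive means compound flagged as likely green fluorescent from well-wide comparison; inactive means the rest.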
# Target: Cell division control protein 42 homolog (Homo sapiens) (UniProt P60953)
# Test: wildtype Cdc42 fluorescent GTP binding changes, either direction – biochemical, multiplex bead flow cytometry, Bodipy-GTP, primary screen (AID 761);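 further: median bead fluorescence of bound Bodipy-FL-GTP at 100 nM; 0% = excess unlabeled GTP control and 100% = no compound control; below 100% means less GTP binding so inhibitor and above means activator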
# Details: GST-Cdc42 beads, at 10 µM, actives lie on both sides
# Chain of UniProt P60953 (P60953 whole entry, looked up): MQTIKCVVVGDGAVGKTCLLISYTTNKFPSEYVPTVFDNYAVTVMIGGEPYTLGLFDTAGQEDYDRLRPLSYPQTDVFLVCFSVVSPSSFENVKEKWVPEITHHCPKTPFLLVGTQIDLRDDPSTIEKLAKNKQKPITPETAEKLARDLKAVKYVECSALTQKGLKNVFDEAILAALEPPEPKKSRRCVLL
row,Structure (SMILES),percent activity (GTP binding)
1,C=CCn1c(N)c(C(=O)OCC)sc1=S,inconclusive: 107%
2,COc1ccccc1NC(=O)C1=C(C)NC(=O)NC1c1ccc(C)s1 (configuration not stated),inactive: 93%
3,C#CCOCCOCCOCCNc1nc(N2CCN(C(=O)C([C@@H](C)CC)n3cc(C(N)Cc4ccc(O)cc4)nn3)CC2)nc(N2CCN(C(=O)[C@H](CCC(=O)O)n3cc(C(N)CO)nn3)CC2)n1 (some centres not stated),inactive: 98%
4,Cc1ccccc1CN1CCN(C(=O)c2cccc(F)c2)CC1,inconclusive: 106%
5,O=C1CSc2ccc(C(=O)NCCC3=CCCCC3)cc2N1,inconclusive: 97%
6,COc1cc(/C=N/NC(=O)CN(Cc2ccco2)S(=O)(=O)c2ccccc2)ccc1O,inactive: 86%
7,O=c1c2ccccc2nc2c3ccccc3c(NCCO)nn12,active: 58%
8,C#CCOCCOCCOCCNc1nc(N2CCN(C(=O)C([C@@H](C)CC)n3cc(C(N)Cc4ccc(O)cc4)nn3)CC2)nc(N2CCN(C(=O)[C@H](CCC(=O)O)n3cc(C(N)[C@H](C)CC)nn3)CC2)n1 (some centres not stated),inactive: 99%
9,CN(C)Cc1c(O)ccc2[nH]cnc12,inconclusive: 105%
10,C=CCn1c(SCc2ccc(C(=O)Nc3ccccc3)cc2)nnc1-c1ccccc1,inconclusive: 108%
11,COc1ccc(CCNC(=O)c2c(O)c3c([nH]c2=O)CCCC3)cc1,inconclusive: 92%
12,NC(=O)c1ccc(NC(=O)COC(=O)CCc2ccc(S(=O)(=O)N3CCCCC3)cc2)cc1,inactive: 95%
13,CCOC(=O)NN1C(=O)c2ccccc2NC1c1ccccc1 (configuration not stated),inconclusive: 105%
14,Cc1ccc(-c2nnc(-c3ccc(NC(=O)c4cccs4)cc3)o2)cc1,inconclusive: 105%
15,Cn1c(=O)cc(N2CCOCC2)[nH]c1=O,inconclusive: 287%
16,CCO[C@@H]1OC(C(=O)N2CCN(Cc3ccccc3)CC2)=C[C@H](c2coc3ccccc3c2=O)[C@H]1CCCO,inactive: 98%
17,O=C(O)c1ccc2c(=O)[nH]c(CN3CCOCC3)nc2c1,inconclusive: 107%
18,COc1ccc2[nH]c(=O)c(CN(Cc3ccc4c(c3)OCO4)C(C)=O)cc2c1,inconclusive: 92%
19,CCOC(=O)C1CCCN(C(=O)CCn2nc(-c3ccccc3)ccc2=O)C1 (configuration not stated),inconclusive: 104%

row,Structure (SMILES),percent activity (GTP binding)
1,Cc1ccccc1CNc1nnnn1C,inactive: 104%
2,CN1CCC(NC(=S)Nc2cccc([N+](=O)[O-])c2)CC1,inactive: 101%
3,O=C(c1ccccc1NS(=O)(=O)c1ccc(F)cc1)N1CCc2ccccc21,inconclusive: 97%
4,COc1ccccc1NC(=S)N1CCN(C(=O)C2CCCO2)CC1 (configuration not stated),inactive: 98%
5,O=C(CC1C(=O)NCCN1Cc1ccc(-c2ccccc2)cc1)NCCCn1cccn1 (configuration not stated),inconclusive: 92%
6,CC(C)NS(=O)(=O)c1ccc(OCC(=O)N2CCCC2)c(Cl)c1,inconclusive: 101%
7,CCOC(=O)c1c(NC(=O)N/N=C/c2ccccc2OCC)sc(C(C)=O)c1C,inconclusive: 123%
8,COc1cc(C(=O)Nc2nnc(CC(C)C)s2)c([N+](=O)[O-])cc1OC,inconclusive: 109%
9,COc1ccc(/C=C(\C#N)C(=O)NCC2CCCO2)cc1OC (configuration not stated),inconclusive: 106%
10,COc1cc2cc(C)c3nnc(SCC(=O)Nc4cc(C)on4)n3c2cc1OC,inconclusive: 89%
11,O=C(Cc1cccs1)Nc1cccc(C(=O)Nc2ccc(C(=O)O)cc2)c1,inactive: 100%
12,O=C(NCCCN1CCOCC1)c1cc(C(=O)C2CCCCC2)c[nH]1,inconclusive: 95%
13,Cc1noc(C)c1COc1cccc(C(=O)NCc2ccccc2Cl)c1,active: 71%
14,Cc1cc(N=CC2=C(O)CC(C)(C)CC2=O)no1,inconclusive: 86%
15,COc1ccc(OCC(=O)Nc2cccc(NC(=O)COc3ccc(OC)cc3)n2)cc1,inconclusive: 96%
16,Cn1c(C(=O)N2CCN(Cc3ccc4c(c3)OCO4)CC2)cc2c(=O)n(C)c3ccccc3c21,inconclusive: 89%
17,Brc1ccc(-c2ccc(/C=N/Nc3nc4ccccc4[nH]3)o2)cc1,inactive: 99%
18,CCOC(=O)/C=C1\SCC(=O)N1CCOc1cccc(Br)c1,inactive: 83%
19,CC(=O)Cc1nsc(Nc2ccc(C)cc2)n1,inactive: 98%

row,Structure (SMILES),percent activity (GTP binding)
1,Cc1nn(Cc2ccccc2Cl)c(C)c1N,inconclusive: 108%
2,COc1ccc(-n2c(N)c(C#N)c3ccc([N+](=O)[O-])cc3c2=O)cc1,inconclusive: 96%
3,O=C(O)c1cccc(N2C(=O)/C(=C/c3ccc(SCc4ccc(Cl)cc4)o3)SC2=S)c1,inconclusive: 86%
4,COC(=O)c1c(NC(=O)CN2CCN(c3cccc(Cl)c3)CC2)sc(C)c1C,inactive: 103%
5,COc1cc2c(cc1OC)C1Cc3ccc(OC)c(OC)c3CN1CC2 (configuration not stated),inconclusive: 104%
6,Cc1nnc(NC(=O)CSc2ccc(-c3ccco3)nn2)s1,inconclusive: 96%
7,O=C(CSc1nc2ncc(Cl)cc2[nH]1)N(Cc1ccccc1)C1CCS(=O)(=O)C1 (configuration not stated),inactive: 98%
8,O=C(O)CC/C(=C\c1cc([N+](=O)[O-])ccc1Cl)c1nc2ccccc2s1,inconclusive: 79%
9,CN(C)c1nc(-c2ccccc2)ncc1S(=O)(=O)c1ccccc1,inconclusive: 96%
10,Cn1c(CSc2nc3ccccc3n2C)nc2ccccc21,inconclusive: 109%
11,CCOC(=O)c1c[nH]c2c(C)ccc(Cl)c2c1=O,inconclusive: 97%
12,COc1ccc(NS(=O)(=O)c2cc(NC(=O)c3nc4nc(C)cc(C)n4n3)ccc2C)cc1,inconclusive: 91%
13,O=C(COc1ccc(C(=O)c2ccccc2)cc1)NCC(=O)Nc1ccccc1Br,inactive: 93%
14,CC(C)(C)NC(=O)NC(=O)CSc1ncccn1,inconclusive: 93%
15,CCN1CCN(C(=O)CCc2nc3ccccc3c(=O)[nH]2)CC1,inconclusive: 104%
16,CSC1=C(C#N)C(c2ccc(C)s2)CC(=O)N1 (configuration not stated),inconclusive: 107%
17,CCCCc1nc2n[nH]c(N)c2c2c1CCCC2,inconclusive: 86%
18,O=C(NCc1ccccc1)N(Cc1cc2cc3c(cc2[nH]c1=O)OCCO3)CC1CCCO1 (configuration not stated),inconclusive: 107%
19,CCN1CCN(C(C(=O)NC2CCCCC2)c2ccc(Cl)cc2)CC1 (configuration not stated),inactive: 94%
